The campaign covered roughly 310,000 compounds. About 2,200 (0.71%) showed an effect of 50% or more. Effects have a minus sign here. The list shows a part of the results.

In the assay the target is human ether-à-go-go-related gene (hERG) potassium channel (human, UniProt Q12809). Description: primary screen, population patch clamp on CHO cells stably expressing hERG.
Chain of human ether-à-go-go-related gene (hERG) potassium channel (Q12809 whole entry, looked up): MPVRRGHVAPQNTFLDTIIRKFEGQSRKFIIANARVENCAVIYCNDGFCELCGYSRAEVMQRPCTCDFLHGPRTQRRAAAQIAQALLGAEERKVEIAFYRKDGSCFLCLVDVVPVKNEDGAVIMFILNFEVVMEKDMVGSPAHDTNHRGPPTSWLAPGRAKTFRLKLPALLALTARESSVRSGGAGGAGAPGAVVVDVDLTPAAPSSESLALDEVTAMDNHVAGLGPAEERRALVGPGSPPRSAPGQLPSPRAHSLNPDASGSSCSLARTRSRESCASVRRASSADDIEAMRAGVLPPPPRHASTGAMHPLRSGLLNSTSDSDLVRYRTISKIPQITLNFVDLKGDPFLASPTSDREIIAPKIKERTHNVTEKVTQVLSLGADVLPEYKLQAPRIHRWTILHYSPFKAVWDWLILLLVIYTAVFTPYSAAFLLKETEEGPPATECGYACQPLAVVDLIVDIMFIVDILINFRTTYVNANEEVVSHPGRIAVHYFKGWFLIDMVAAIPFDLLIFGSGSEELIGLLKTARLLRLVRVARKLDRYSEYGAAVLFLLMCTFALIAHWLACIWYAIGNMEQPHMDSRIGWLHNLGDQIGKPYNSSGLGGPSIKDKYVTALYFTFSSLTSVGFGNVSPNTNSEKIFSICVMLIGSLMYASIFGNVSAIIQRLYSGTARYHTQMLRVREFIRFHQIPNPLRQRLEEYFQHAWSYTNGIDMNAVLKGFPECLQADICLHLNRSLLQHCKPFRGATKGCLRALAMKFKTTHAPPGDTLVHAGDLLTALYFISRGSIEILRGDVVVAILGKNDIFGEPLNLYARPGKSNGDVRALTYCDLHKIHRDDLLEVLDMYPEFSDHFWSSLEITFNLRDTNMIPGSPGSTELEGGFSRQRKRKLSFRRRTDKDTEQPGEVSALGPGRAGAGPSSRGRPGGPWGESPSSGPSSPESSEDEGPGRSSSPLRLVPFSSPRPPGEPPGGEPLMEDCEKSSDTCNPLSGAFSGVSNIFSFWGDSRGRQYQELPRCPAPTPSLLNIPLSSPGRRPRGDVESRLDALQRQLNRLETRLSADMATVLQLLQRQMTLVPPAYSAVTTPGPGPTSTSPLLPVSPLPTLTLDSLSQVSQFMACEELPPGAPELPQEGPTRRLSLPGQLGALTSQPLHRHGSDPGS
On to `CCN1C(=O)C2C(c3cccc(F)c3)NC(C)(C(=O)OC)C2C1=O` (stereo not shown), for which the “hERG current change (%, negative = inhibition) at 1uM” value came out at 15.8%.

Turning to `COc1ccc(COC(=O)C2CCN(S(=O)(=O)c3ccc(C)cc3)CC2)cc1`, the “hERG current change (%, negative = inhibition) at 1uM” value turned out to be 13.7%.

Turning to `COc1ccccc1N1CCN(CC(=O)Nc2nc(C)c(C(=O)N(C)C)s2)CC1`, the “hERG current change (%, negative = inhibition) at 1uM” value was found to be 12.9%. The figure for `O=C(c1cc(Cl)ccc1Cl)N1CCN(Cc2ccccc2)CC1` is 14.1%; for `CC(c1ccccc1)C1CC(=O)N(c2cc(Cl)ccn2)C1=O` (stereo not shown) it is 14.2%; for `CCc1cc(=O)oc2c(C)c(OCC(=O)N3C[C@H]4C[C@@H](C3)c3cccc(=O)n3C4)ccc12` it is 10.8%. For `CCN(C(=O)CSc1nc2ccccc2o1)C1CCS(=O)(=O)C1` (stereo not shown), the “hERG current change (%, negative = inhibition) at 1uM” value is 6.16%. As for `CCOC(=O)c1c(NC(=O)COc2ccccc2OCC)sc2c1CC(C)(C)NC2(C)C`, the “hERG current change (%, negative = inhibition) at 1uM” value is 21%. To `Cc1ccc(CNC(=O)C(C)OC(=O)c2ccco2)cc1` (stereo not shown) belongs 1.22%; to `CCOC(=O)/C(C#N)=C/c1cccn1-c1ccc(Cl)cc1`, 3.64%.

As for `CCn1c2ccccc2c2cc(CN3CCN(S(=O)(=O)CC)CC3)ccc21.O=C(O)C(=O)O`, the “hERG current change (%, negative = inhibition) at 1uM” value amounted to 7.34%. To `O=C(C1CC1)N1N=C(c2ccccc2)CC1(O)C(F)(F)C(F)(F)F` (stereo not shown) belongs 10.8%; to `CCCCCCCC(=O)NC(Nc1ccc(S(N)(=O)=O)cc1)C(Cl)(Cl)Cl` (stereo not shown), 8.06%; to `Cc1cccc(-n2c(-c3ccncc3)n[nH]c2=S)c1C`, 13.5%.

As for `COc1cc(-n2c(=S)[nH]c3ccccc3c2=O)c(Cl)cc1Cl`, the “hERG current change (%, negative = inhibition) at 1uM” value is recorded as 9.08%.

In the case of `CS(=O)(=O)N1CCN(Cc2ccc(C(F)(F)F)cc2)CC1.O=C(O)C(=O)O`, the “hERG current change (%, negative = inhibition) at 1uM” value is on record as 12.6%.

`Cc1cc(C)c(-n2c(O)c(/C=N/N3CCCCC3c3cccnc3)c(=O)[nH]c2=O)c(C)c1` (stereo not shown): the “hERG current change (%, negative = inhibition) at 1uM” value is 13.4%.

Take `COCc1cc(/C=N\NC(=O)COc2ccccc2)ccc1OC`: the “hERG current change (%, negative = inhibition) at 1uM” value worked out at 7.07%. As for `NC(=O)CN(Cc1ccccc1)S(=O)(=O)c1ccc2c(c1)OCCO2`, the “hERG current change (%, negative = inhibition) at 1uM” value amounted to 15.8%. The figure for `O=C(CCNS(=O)(=O)c1cccc2nonc12)NCCc1ccc(Cl)cc1` is 3.01%; for `Cc1sc(NC(=O)c2cc3ccccc3oc2=O)c(C(=O)OC(C)C)c1-c1ccccc1` it is 4.54%. To `Clc1ccc(C(c2nnnn2C2CCCC2)N2CCN(c3nc4ccccc4s3)CC2)cc1` (stereo not shown) belongs 17.2%; to `CCOc1ccc(-n2c(=S)sc3c(=O)[nH]c(SCC(=O)NCC4CCCO4)nc32)cc1` (stereo not shown), 3.06%; to `COc1ccccc1OCC(=O)Nc1ccc(C(N)=O)cc1`, 15.4%.

On to `CCCn1c(=O)c(C(=O)NCCc2ccc(OC)cc2)c(O)c2ccccc21`, for which the “hERG current change (%, negative = inhibition) at 1uM” value came out at 11.6%. The figure for `Cc1ccc(CNC(=O)CSc2nc3ccccc3[nH]2)cc1` is 10%. To `COCCn1c(SCC(=O)Nc2cccc(NC(C)=O)c2)nc2c([nH]c3ccccc32)c1=O` belongs 14.4%; to `Cc1ccc(-c2c[n+](=O)c3c(n2[O-])CCC3)cc1`, 16.5%; to `CCc1ccccc1NC(=S)N(Cc1cccc(C)c1)c1cccnc1`, 21.3%. The figure for `Cc1ccc(-n2nnnc2SCC(=O)N2Cc3ccccc3CC2C(=O)O)cc1` (stereo not shown) is 11.8%; for `CNS(=O)(=O)c1cccc(C(=O)NNC(=O)c2ccc(COc3ccccc3)cc2)c1` it is 11.1%; for `Cc1cc(C)nc(SCCC(=O)Nc2ccc(F)cc2)n1` it is 11.4%. For the molecule `O=C(NCCc1ccccc1)c1ccc2c(c1)S(=O)(=O)c1cc(Cl)ccc1C2=O`, the “hERG current change (%, negative = inhibition) at 1uM” value stood at 14.5%. For the molecule `CCOc1ccc(C(C)(O)CN2CCOCC2)cc1` (stereo not shown), the “hERG current change (%, negative = inhibition) at 1uM” value was 16.6%.

For the molecule `O=C(COC(=O)c1ccccc1Oc1ccccc1)NCc1ccco1`, the “hERG current change (%, negative = inhibition) at 1uM” value is on record as 10.9%.

Turning to `O=C(c1ccc(F)cc1)N1CCN(C2=NS(=O)(=O)c3ccccc32)CC1`, the “hERG current change (%, negative = inhibition) at 1uM” value came to 9.47%. The figure for `CC(=O)Nc1ccc(SCc2ncc(-c3ccccc3)o2)cc1` is 12.7%; for `COc1c(F)c(F)c(C(=O)Nc2cccc(Cl)c2N2CCOCC2)c(F)c1F` it is 11.4%; for `CCCCNC(=O)c1cc2c(=O)n(CC)c3ccccc3c2s1` it is 13.1%. Take `CN(Cc1cccnc1)Cc1cn(Cc2ccccc2)nc1-c1ccc2c(c1)OCO2`: the “hERG current change (%, negative = inhibition) at 1uM” value is recorded as 4.36%. The figure for `Cc1cc(C(=O)CN(Cc2ccc(F)cc2)S(=O)(=O)c2ccc3c(c2)OCCO3)c(C)n1C` is 15.1%. Consider `CCSc1nnc(NC(=O)CSc2nc(C)cc(C)n2)s1`, for which the “hERG current change (%, negative = inhibition) at 1uM” value is recorded as -0.119%. The figure for `COc1ccc([N+](=O)[O-])cc1NC1CCN(C(=O)c2cccs2)CC1` is -27.2%.
